{"source": "PubChem BioAssay AID485294", "about": "(National Center for Advancing Translational Sciences (NCATS), 2010)", "note": "The whole screen tested about 370,000 compounds, of which about 150 (0.041%) were called active. The shares of active, inactive and inconclusive entries below differ from those in the screen. Calls come from the whole dose curve; as a rule, active = well fitted inhibition curve with a large enough effect; inconclusive = small, poorly fitted or top-dose-only effect; inactive = flat fitted curve, though single readings scatter. No potency is given beside an inconclusive call; the fits are too rough. Potency is the fitted concentration of half-maximal effect; tags give direction and shape of the fitted curve."}
{"biological_target": "Beta-lactamase (Escherichia coli (strain K12)) (UniProt P00811)", "sequence (P00811 whole entry, looked up)": "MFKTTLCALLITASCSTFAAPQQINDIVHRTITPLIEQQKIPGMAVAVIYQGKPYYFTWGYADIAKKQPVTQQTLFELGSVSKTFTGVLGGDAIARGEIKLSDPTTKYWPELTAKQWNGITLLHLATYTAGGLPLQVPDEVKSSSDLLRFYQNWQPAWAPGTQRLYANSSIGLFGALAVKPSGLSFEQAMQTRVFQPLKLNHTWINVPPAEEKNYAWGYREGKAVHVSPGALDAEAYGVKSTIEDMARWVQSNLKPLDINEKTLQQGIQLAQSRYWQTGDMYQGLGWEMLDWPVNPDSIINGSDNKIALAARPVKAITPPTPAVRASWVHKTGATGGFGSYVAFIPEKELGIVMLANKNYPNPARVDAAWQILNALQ", "experiment": "qHTS Inhibitors of AmpC Beta-Lactamase (assay with detergent); note: nearly all actives have a fitted effect of over 25% in size", "settings": "AmpC hydrolysis of nitrocefin, absorbance 480 nm, 0.01% Triton; series mostly up to 114 µM", "summary_of_the_method": "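20 mM phosphate pH 7.0 + 0.01% (detergent screen) or 0.0001% Triton X-100; 5.3 nM AmpC reagent; cpd preinc 15 min RT; nitrocefin (800 uM stock) to start; A480 q20 s × 4 min; Activity was normalised to no-enzyme and no-compound control wells.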"}
{"smiles": "C#CCOCCOCCOCCNc1nc(N2CCN(C(=O)[C@H](CCCCN)n3cc(CCCC)nn3)CC2)nc(N2CCN(C(=O)[C@H](Cc3ccc(O)cc3)n3cc(CCO)nn3)CC2)n1", "Potency": "inconclusive [inhibitor, partial curve, poor fit]"}
{"smiles": "Cc1ccc(CN(c2ccc(C(=O)N3CCCC3)cc2)S(C)(=O)=O)cc1", "Potency": "inconclusive [inhibitor, partial curve, poor fit]"}
{"smiles": "Cc1cc2cccc(C)c2nc1SCC(=O)NNC(=O)c1ccco1", "Potency": "inactive"}
{"smiles": "CC1(C2(O)CC(c3ccccc3)ON2)CCCCC1", "note": "(stereo not drawn)", "Potency": "inconclusive [inhibitor, full curve, poor fit]"}
{"smiles": "Cc1c(C(=O)NCc2ccc(F)cc2)oc2ccc(S(=O)(=O)N3CCCCC3)cc12", "Potency": "inactive"}
{"smiles": "Cc1c(Cl)cccc1NC(=S)NCC(C)C", "Potency": "inconclusive [inhibitor, full curve, poor fit]"}
{"smiles": "O=C(Nc1cccc(NC(=O)C2CCCO2)c1)c1ccco1", "note": "(stereo not drawn)", "Potency": "inactive"}
{"smiles": "CCc1nnc(NS(=O)(=O)c2ccc(NC(=O)c3cc(Cl)ccc3[N+](=O)[O-])cc2)s1", "Potency": "inconclusive [inhibitor, full curve, poor fit]"}
{"smiles": "CC(C)(C)c1ccc(OCCCC(=O)NNC(=O)c2ccccc2O)cc1", "Potency": "inconclusive [inhibitor, single point]"}
{"smiles": "Cc1ccc(C(=O)NC(=S)N2CCCCCC2)cc1", "Potency": "inactive"}
{"smiles": "O=C(Nc1nc2ccccc2c2nc3ccccc3n12)c1ccc(F)cc1", "Potency": "inactive"}
{"smiles": "O=C(Nc1ccc(-c2csnn2)cc1)C1CC1", "Potency": "inconclusive [inhibitor, single point]"}
{"smiles": "COc1cccc(OCc2cc(C(=O)NCc3cnc4ccccn34)no2)c1", "Potency": "inactive"}
{"smiles": "O=C(NC1=NCCS1)c1ccc(C(F)(F)F)cc1", "Potency": "inactive"}
{"smiles": "COc1ccc(NC(=O)CN2C(=O)CC(c3ccc(C)c(C)c3)=Nc3ccccc32)cc1OC", "Potency": "inactive"}
{"smiles": "Cc1ccc(S(=O)(=O)N2CCCCC2)cc1C(=O)OC(C)C(=O)NC1CCCCC1C", "note": "(stereo not drawn)", "Potency": "inconclusive [inhibitor, full curve, poor fit]"}
{"smiles": "COc1ccc(-c2nnc(SCC(=O)NNC(=O)c3ccc(C)cc3)o2)cc1", "Potency": "inconclusive [inhibitor, full curve, poor fit]"}
{"smiles": "CC(=O)c1cccc(NC(=O)C(C)OC(=O)CNC(=O)c2ccc(C)s2)c1", "note": "(stereo not drawn)", "Potency": "inconclusive [inhibitor, full curve, poor fit]"}
{"smiles": "Cn1c(CNC(=O)Cc2ccc3c(c2)OCO3)nnc1SCc1ccccc1", "Potency": "inconclusive [inhibitor, full curve, poor fit]"}
{"smiles": "O=C(CCCc1nc(-c2ccccc2)no1)Nc1cccnc1", "Potency": "inconclusive [inhibitor, partial curve, poor fit]"}
{"smiles": "CCCNS(=O)(=O)c1ccc(NC(=O)Cc2cccs2)cc1", "Potency": "inactive"}
{"smiles": "COCCNS(=O)(=O)c1ccc2c(c1)C(=O)c1cc(S(=O)(=O)NCCOC)ccc1-2", "Potency": "inconclusive [inhibitor, full curve, poor fit]"}
{"smiles": "COc1ccc(OCC(=O)Nc2ccc3nc(C)sc3c2)cc1", "Potency": "inconclusive [inhibitor, full curve, poor fit]"}
{"smiles": "CC(C)(C)c1ccccc1OCC(=O)NCc1ccccc1", "Potency": "inconclusive [inhibitor, partial curve, poor fit]"}
{"smiles": "Cc1nn(C(=O)c2cccnc2)c(C)c1Sc1ccccc1", "Potency": "inconclusive [inhibitor, full curve, poor fit]"}
{"smiles": "O=c1c(/C=C(\\O)c2ccc(F)cc2)nc2ccccc2n1-c1ccccc1", "Potency": "inconclusive [inhibitor, full curve, poor fit]"}
{"smiles": "O=C(CN(Cc1ccco1)C(=O)CNS(=O)(=O)c1ccccc1)NC1CCCCC1", "Potency": "inconclusive [inhibitor, partial curve]"}
{"smiles": "CCC(NS(=O)(=O)c1cn(C)nc1C)c1ccccc1", "note": "(stereo not drawn)", "Potency": "inconclusive [inhibitor, full curve, poor fit]"}
{"smiles": "Cc1ccc2c(COC(=O)CC3Sc4ccccc4NC3=O)cc(=O)oc2c1C", "note": "(stereo not drawn)", "Potency": "inactive"}
{"smiles": "Cc1nnsc1C(=O)N/N=C/c1ccc(OC(F)(F)F)cc1", "Potency": "inconclusive [inhibitor, partial curve, poor fit]"}
{"smiles": "Cn1c(Cn2c(=O)sc3ccccc32)nnc1SCc1cccnc1", "Potency": "inconclusive [inhibitor, full curve, poor fit]"}
{"smiles": "c1cn2cc(CN3CCOCC3)nc2s1", "Potency": "inconclusive [inhibitor, full curve, poor fit]"}
{"smiles": "Cc1ccc(S(=O)(=O)N(C)C)cc1NC(=O)COC(=O)CCNS(=O)(=O)c1ccccc1", "Potency": "inconclusive [inhibitor, full curve, poor fit]"}
{"smiles": "NC(=O)CC(NC(=O)c1ccc(Br)cc1)c1ccc(NC2CCCCCC2)c([N+](=O)[O-])c1", "note": "(stereo not drawn)", "Potency": "inactive"}
{"smiles": "COC(=O)c1ccc(NC(=S)NC2CCCCC2)cc1", "Potency": "inconclusive [inhibitor, full curve, poor fit]"}
{"smiles": "CC(C)(C)C1CCc2c(sc(NC(=O)c3cc4ccccc4c(=O)o3)c2C(N)=O)C1", "note": "(stereo not drawn)", "Potency": "inactive"}
{"smiles": "O=C(Nc1nc(-c2ccc(Cl)cc2)cs1)C1=COCCO1", "Potency": "inconclusive [inhibitor, single point]"}
{"smiles": "COc1cc(Br)cc(/C=N/c2ncn[nH]2)c1O", "Potency": "inconclusive [inhibitor, full curve, poor fit]"}
{"smiles": "Cc1ccc(-c2nc(-c3cccnc3)sc2CC(=O)O)cc1", "Potency": "inactive"}
{"smiles": "Cc1cccc(N(C)c2nc3ccc(C(=O)c4ccccc4)cc3n3c(C)nnc23)c1", "Potency": "inactive"}
{"smiles": "Cc1nn(S(=O)(=O)c2ccc(C(C)C)cc2)c(C)c1S(=O)(=O)N1CCOCC1", "Potency": "inconclusive [inhibitor, full curve, poor fit]"}
{"smiles": "CCOc1ccc(/C=N/Nc2ccccn2)cc1", "Potency": "inactive"}
{"smiles": "O=C(/C=C/c1ccco1)Nc1ccccc1N1CCOCC1", "Potency": "inconclusive [inhibitor, full curve, poor fit]"}
